# Laboratory results as given in the supplement of paper PMC8728848.
# The other results are listed elsewhere or left out.
# B1: BDCA-2 (Homo sapiens), Q8WTT0 (protein)
# chain: MVPEEEPQDREKGLWWFQLKVWSMAVVSILLLSVCFTVSSVVPHNFMYSKTVKRLSKLREYQQYHPSLTCVMEGKDIEDWSCCPTPWTSFQSSCYFISTGMQSWTKSQKNCSVMGADLVVINTREEQDFIIQNLKRNSSYFLGLSDPGGRRHWQWVDQTPYNENVTFWHSGEPNNLDERCAIINFRSSEEWGWNDIHCHVPQKSICKMKKIYI
# Tests used:
# Assay in all cases: glycan array binding signal (z-score within array); higher = stronger binding
# Conditions in all cases: glycan notation: IUPAC condensed, linker removed
# [1] = molecular target: Gal(b1-4)GlcNAc(b1-2)Man(a1-3)[Gal(b1-4)GlcNAc(b1-2)Man(a1-6)][GlcNAc(b1-4)]Man(b1-4)GlcNAc(b1-4)[Fuc(a1-6)]GlcNAc
# Outline: (§1)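 Negative Z-scores can be read as non-binding. The Z-score is calculated within each array and then averaged across arrays of one protein sequence at different concentrations or buffers and across linkers. Arrays, 3228 in all, were curated from the Consortium for Functional Glycomics database and kept only where the protein sequence was available.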
# [2] = molecular target: Gal(b1-4)GlcNAc(b1-2)Man(a1-3)[GlcNAc(b1-2)Man(a1-6)]Man(b1-4)GlcNAc(b1-4)GlcNAc
# Outline: as §1
# [3] = molecular target: Gal(b1-4)GlcNAc(b1-2)Man(a1-3)[GlcNAc(b1-4)][Gal(b1-4)GlcNAc(b1-2)Man(a1-6)]Man(b1-4)GlcNAc(b1-4)GlcNAc
# Outline: as §1
# [4] = molecular target: Gal(b1-4)GlcNAc(b1-2)Man(a1-3)[Man(a1-6)]Man(b1-4)GlcNAc(b1-4)GlcNAc
# Outline: as §1
# [5] = molecular target: Gal(b1-4)GlcNAc(b1-2)Man(a1-6)Man(b1-4)GlcNAc(b1-4)GlcNAc
# Outline: as §1
# [6] = molecular target: Gal(b1-4)GlcNAc(b1-2)Man(a1-6)[GlcNAc(b1-2)Man(a1-3)]Man(b1-4)GlcNAc(b1-4)GlcNAc
# Outline: as §1
# [7] = molecular target: Gal(b1-4)GlcNAc(b1-2)Man(a1-6)[Man(a1-3)]Man(b1-4)GlcNAc(b1-4)GlcNAc
# Outline: as §1
# [8] = molecular target: Gal(b1-4)GlcNAc(b1-2)[Gal(b1-4)GlcNAc(b1-4)]Man(a1-3)[Gal(b1-4)GlcNAc(b1-2)Man(a1-6)]Man(b1-4)GlcNAc(b1-4)GlcNAc
# Outline: as §1
# [9] = molecular target: Gal(b1-4)GlcNAc(b1-2)[Gal(b1-4)GlcNAc(b1-4)]Man(a1-3)[Gal(b1-4)GlcNAc(b1-2)[Gal(b1-4)GlcNAc(b1-6)]Man(a1-6)]Man(b1-4)GlcNAc(b1-4)GlcNAc
# Outline: as §1
# [10] = molecular target: Gal(b1-4)GlcNAc(b1-2)[Gal(b1-4)GlcNAc(b1-4)]Man(a1-3)[GlcNAc(b1-4)][Gal(b1-4)GlcNAc(b1-2)Man(a1-6)]Man(b1-4)GlcNAc(b1-4)GlcNAc
# Outline: as §1
# [11] = molecular target: Gal(b1-4)GlcNAc(b1-2)[Gal(b1-4)GlcNAc(b1-4)]Man(a1-3)[GlcNAc(b1-4)][Gal(b1-4)GlcNAc(b1-2)[Gal(b1-4)GlcNAc(b1-6)]Man(a1-6)]Man(b1-4)GlcNAc(b1-4)GlcNAc
# Outline: as §1
# [12] = molecular target: Gal(b1-4)GlcNAc(b1-2)[Gal(b1-4)GlcNAc(b1-6)]Man(a1-6)[Gal(b1-4)GlcNAc(b1-2)Man(a1-3)]Man(b1-4)GlcNAc(b1-4)GlcNAc
# Outline: as §1
# [13] = molecular target: Gal(b1-4)GlcNAc(b1-2)[Gal(b1-4)GlcNAc(b1-6)]Man(a1-6)[Gal(b1-4)GlcNAc(b1-2)Man(a1-3)]Man(b1-4)GlcNAc(b1-4)[Fuc(a1-6)]GlcNAc
# Outline: as §1
# [14] = molecular target: Gal(b1-4)GlcNAc(b1-2)[Gal(b1-4)GlcNAc(b1-6)]Man(a1-6)[GlcNAc(b1-4)][Gal(b1-4)GlcNAc(b1-2)Man(a1-3)]Man(b1-4)GlcNAc(b1-4)GlcNAc
# Outline: as §1
# [15] = molecular target: Gal(b1-4)GlcNAc(b1-2)[Gal(b1-4)GlcNAc(b1-6)]Man(a1-6)[GlcNAc(b1-4)][Gal(b1-4)GlcNAc(b1-2)[Gal(b1-4)GlcNAc(b1-4)]Man(a1-3)]Man(b1-4)GlcNAc(b1-4)[Fuc(a1-6)]GlcNAc
# Outline: as §1
# [16] = molecular target: Gal(b1-4)GlcNAc(b1-3)Gal(b1-3)GalNAc
# Outline: as §1
# [17] = molecular target: Gal(b1-4)GlcNAc(b1-3)Gal(b1-3)GlcNAc
# Outline: as §1
# [18] = molecular target: Gal(b1-4)GlcNAc(b1-3)Gal(b1-4)Glc
# Outline: as §1
# [19] = molecular target: Gal(b1-4)GlcNAc(b1-3)Gal(b1-4)GlcNAc
# Outline: as §1
# [20] = molecular target: Gal(b1-4)GlcNAc(b1-3)Gal(b1-4)GlcNAc(b1-2)Man(a1-3)[Gal(b1-4)GlcNAc(b1-3)Gal(b1-4)GlcNAc(b1-2)Man(a1-6)]Man(b1-4)GlcNAc(b1-4)GlcNAc
# Outline: as §1
# [21] = molecular target: Gal(b1-4)GlcNAc(b1-3)Gal(b1-4)GlcNAc(b1-2)Man(a1-3)[Gal(b1-4)GlcNAc(b1-3)Gal(b1-4)GlcNAc(b1-2)Man(a1-6)]Man(b1-4)GlcNAc(b1-4)[Fuc(a1-6)]GlcNAc
# Outline: as §1
# [22] = molecular target: Gal(b1-4)GlcNAc(b1-3)Gal(b1-4)GlcNAc(b1-2)[Gal(b1-4)GlcNAc(b1-3)Gal(b1-4)GlcNAc(b1-6)]Man(a1-6)[Gal(b1-4)GlcNAc(b1-3)Gal(b1-4)GlcNAc(b1-2)Man(a1-3)]Man(b1-4)GlcNAc(b1-4)GlcNAc
# Outline: as §1
binder,measurement,setting,value
B1,glycan array binding signal (z-score),[1],3.96
same,glycan array binding signal (z-score),[2],6.87
same,glycan array binding signal (z-score),[3],0.554
same,glycan array binding signal (z-score),[4],3.54
same,glycan array binding signal (z-score),[5],0.917
same,glycan array binding signal (z-score),[6],3.33
same,glycan array binding signal (z-score),[7],0.84
same,glycan array binding signal (z-score),[8],0.325
same,glycan array binding signal (z-score),[9],0.254
same,glycan array binding signal (z-score),[10],-0.113
same,glycan array binding signal (z-score),[11],-0.146
same,glycan array binding signal (z-score),[12],6.95
same,glycan array binding signal (z-score),[13],8.21
same,glycan array binding signal (z-score),[14],0.409
same,glycan array binding signal (z-score),[15],-0.068
same,glycan array binding signal (z-score),[16],-0.166
same,glycan array binding signal (z-score),[17],-0.179
same,glycan array binding signal (z-score),[18],-0.205
same,glycan array binding signal (z-score),[19],0.031
same,glycan array binding signal (z-score),[20],-0.062
same,glycan array binding signal (z-score),[21],-0.127
same,glycan array binding signal (z-score),[22],-0.145
